# Measurements taken from PubChem BioAssay AID686978 (National Center for Advancing Translational Sciences (NCATS), 2013).
# Screen size: about 420,000 compounds; about 64,000 (15%) were called active. Inconclusive means that the source gave no clear call. Such entries were picked first, then a sample of the others. Calls follow the shape of the dose curve; as a rule, active = well fitted inhibition curve with a large enough effect; inconclusive = small, poorly fitted or top-dose-only effect; inactive = flat fitted curve, though single readings scatter. Potencies of inconclusive entries are left out as doubtful fits. Square brackets hold non-standard residues; d marks the D form. Peptide text beside a SMILES is read from it. * marks the point of attachment. ξ: configuration not given here. Cbz = O=C(OCc1ccccc1)*; ξA = CC(N)C(=O)O
# Assay: qHTS for Inhibitors of human tyrosyl-DNA phosphodiesterase 1 (TDP1): qHTS in cells in absence of CPT; also: nearly all actives have a fitted effect of over 55% in size
# Conditions: DT40 Tdp1-/- hTDP1 cells, no CPT, ATP luminescence, 48 h; series mostly up to 46.2 µM
# In short: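 Chicken DT40 Tdp1-/- cells complemented with human TDP1, screened without camptothecin (DMSO vehicle only), 400 cells/well. Compounds pin-transferred, cells incubated at 37 °C for at least 48 hr. Growth read as ATP-dependent luminescence (CellTiter-Glo, 30 min at RT).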
# Potency is read from the fitted curve at half-maximal effect; tags tell the direction and shape of the fitted curve.
row,Structure (SMILES),Potency
1,CC(=O)N1C[C@H]2CON(C)[C@H]2C[C@H]1c1ccccc1,inactive
2,CC1=C(c2ccc(C(C)C)cc2)S(=O)(=O)N=C1N1CCC(C(=O)NCc2ccccc2)CC1,"inconclusive [inhibitor, single point]"
3,O=C(CSc1nnnn1C1CC1)N1CCN(c2ccc(O)cc2)CC1,"inconclusive [inhibitor, single point]"
4,CCOc1ccccc1CNC(=O)C1CCN(S(=O)(=O)c2c(C)noc2/C=C/c2ccccc2F)CC1,"inconclusive [inhibitor, full curve, poor fit]"
5,OC12CCCCC1C(c1ccc3c(c1)OCO3)N(Cc1ccc(F)cc1)CC2 (configuration not stated),"inconclusive [inhibitor, single point]"
6,Cc1ccc(C(=O)NCCn2cc(SCC(=O)N3CCOCC3)c3ccccc32)cc1,"inconclusive [inhibitor, single point]"
7,COc1ccc(C2C(C)C(=O)C(C)C(c3ccc(OC)cc3)N2N=O)cc1 (configuration not stated),"inconclusive [inhibitor, partial curve, poor fit]"
8,Cn1c(=O)oc2cc(S(=O)(=O)Nc3cccc4c3CCCC4)ccc21,"inconclusive [inhibitor, partial curve, poor fit]"
9,C/C(=N\NC(=O)c1cc(-c2cccc(OC(C)C)c2)nc2ccccc12)c1cccnc1,"inconclusive [inhibitor, partial curve]"
10,Cc1ccc(/C(O)=C2\C(=O)C(=O)N(C)C2c2ccccc2)cc1 (configuration not stated),"inconclusive [inhibitor, single point]"
11,CCn1c(C(=O)NCc2ccccc2OC)cc2sccc21,"inconclusive [inhibitor, single point]"
12,CCN1C(=O)[C@H]2[C@@H](c3ccc(-c4cccc(Cl)c4)c(OC)c3)N[C@@](C)(C(=O)OC)[C@H]2C1=O,"inconclusive [inhibitor, partial curve, poor fit]"
13,C=C[C@H](CC(C)C)N(Cc1ccccc1)S(=O)(=O)N(Cc1ccc(OC)cc1)[C@H](C=C)CC(C)C,active: 13 µM
14,COc1ccc(NC(=O)C2CC(c3c(F)cccc3Cl)=NO2)cc1OC (configuration not stated),"inconclusive [inhibitor, single point]"
15,COc1ccc(-c2nc(CSCC(=O)NC3CCCc4ccccc43)c(C)o2)cc1 (configuration not stated),"inconclusive [inhibitor, single point]"
16,Cc1cccc(CC(=O)N2CCC(n3nccc3NC(=O)C3CC3)CC2)c1,inactive
17,COC(=O)c1cc(CSc2nc3ccccc3c(=O)n2C)oc1C,"inconclusive [inhibitor, single point]"
18,CCOc1ccccc1NC(=O)CN1C(=O)COc2ccc(C)cc21,inactive
19,C[C@H](CO)N1C[C@H](C)[C@@H](CN(C)Cc2cncnc2)Oc2cc(Br)ccc2S1(=O)=O,"inconclusive [inhibitor, single point]"
20,COc1ccc(-n2ccnc(NCc3cccs3)c2=O)cc1OC,"inconclusive [inhibitor, partial curve]"
21,COc1ccc(COc2cc(-c3cccc(OC)c3)nc3ccc(NC(C)=O)cc23)cc1,inactive

row,Structure (SMILES),Potency
1,CCOC(=O)N1CCN(S(=O)(=O)N2CCCC(C(=O)NCCc3ccc(Cl)cc3)C2)CC1 (configuration not stated),"inconclusive [inhibitor, single point]"
2,O=C(Nc1ccc(Cl)cc1)Nc1ccccc1Sc1ncc([N+](=O)[O-])s1,active: 6.51 µM
3,CCCC(=O)N1N=C(c2ccccc2)CC1c1cn(C)c2ccccc12 (configuration not stated),"inconclusive [inhibitor, single point]"
4,CSc1nn(CCc2ccncc2)c(=S)s1,"inconclusive [inhibitor, single point]"
5,CCOc1ccc(N(C(=O)CNC(=O)c2cccs2)C(C(=O)NCC2CCCO2)c2ccc(OC)c(OC)c2)cc1 (configuration not stated),inactive
6,CCOC(=O)c1cc(-c2ccccc2)nc2nc(N3CCCCC3)sc12,"inconclusive [inhibitor, single point]"
7,Cc1cccc(C)c1NC(=O)C1c2ccccc2OCC(=O)N1CCCN1CCOCC1 (configuration not stated),inactive
8,COc1ccc(S(=O)(=O)N(CC(=O)N2CCOCC2)c2cc(Cl)ccc2OC)cc1OC,inactive
9,COc1cc(C(=O)N/N=C/c2ccc3c(c2)c2ccccc2n3C)ccc1O,active: 14.6 µM
10,COC(=O)CNC(=O)C(C)NC(=O)CNC(=O)OCc1ccccc1 (stereo not drawn) (Cbz-Gly-[ξA]-Gly-OMe),"inconclusive [inhibitor, single point]"
11,Cc1cc(C)n(Cc2cc(C(=O)O)c3ccccc3n2)n1,inactive
12,S=c1[nH]nc(Cc2ccc(Cl)cc2)n1-c1ccc2c(c1)OCCO2,"inconclusive [inhibitor, partial curve]"
13,CCOc1cc2[nH]c(=S)n(CCCN3CCCC3=O)c(=O)c2cc1OCC,"inconclusive [inhibitor, single point]"
14,CCOC(=O)C1(Cc2cccc(Cl)c2)CCCN(C2CCN(C(C)=O)CC2)C1 (configuration not stated),"inconclusive [inhibitor, single point]"
15,c1ccc(-c2ccc3c(c2)NC(C2Nc4cc(-c5ccccc5)ccc4O2)O3)cc1 (configuration not stated),"inconclusive [inhibitor, partial curve]"
16,COc1cccc(C2=CC(c3ccccc3F)n3ncc(C(=O)Nc4ccc(C)cc4)c3N2)c1 (configuration not stated),active: 16.4 µM
17,O=C1CCCCC1Sc1nnc(-c2ccc3c(c2)OCO3)o1 (configuration not stated),inactive
18,Cc1cc2c(=O)n(C)c(SCC(=O)Nc3ccc(F)cc3)nc2s1,inactive
19,CC(C)(C)n1nnnc1C(c1ccccc1)N1CCN(c2ccc(C(F)(F)F)cn2)CC1 (configuration not stated),"inconclusive [inhibitor, single point]"
20,Cc1cc(C(=O)OCC(=O)N2CC(C)OC(C)C2)c(C)n1-c1ccccc1 (configuration not stated),"inconclusive [inhibitor, single point]"
21,COc1ccc(/C=N/N2CCN(Cc3ccc(C)cc3)CC2)cc1Br,"inconclusive [inhibitor, single point]"
